# How the values were obtained:
# Sphaerotheca fuliginea = assay: Controlling effect on cucumber mildew by foliage application (pot experiment); conditions: cucumber first leaf, 10 days after inoculation
# Description: (§1) [Controlling effects on various plant diseases by foliage application (pot experiment)]
# (§2) A test compound was dissolved in a small amount of N,N-dimethylformamide, and the solution was diluted to a given concentration with distilled water containing a spreader, whereby preparing a liquid sample. The liquid sample was sprayed to each test plant, and after 24 hours each pathogens was inoculated by the method described below.
# (§3) A % control was calculated according to the following equation. [formula]
# Controlling effect on cucumber mildew microorganism (Sphaerotheca fuliginea)
# A seed of a cucumber (cv.: TSUKUBASHIROIBO) was sown in a plastic cup which was 9 cm in diameter, and cultivated for 2 to 3 weeks. The liquid test sample in the form of a solution or suspension was sprayed on the surface of the first leaf. The pathogen was inoculated to the leaf by spraying a conidia suspension of a cucumber mildew microorganism (Sphaerotheca fuliginea) which had been cultured on a cucumber leaf. After the inoculation, the plant was kept in a greenhouse at 20° C. for 10 days. Then, the infected area on the leaf was observed, and the % control was calculated.
# [1] = tested on: Erysiphe graminis f.sp.tritici; assay: Controlling effect on wheat powdery mildew by foliage application (pot experiment); conditions: wheat seedling, 10 days after inoculation
# Description: as §1, §2, §3
# Controlling Effect on Wheat Powdery Mildew Microorganism (Erysiphe graminis f.sp.tritici)
# A seed of a wheat (cv.: NORIN No.61) was sown in a plastic cup which was 9 cm in diameter and cultivated for 2 to 3 weeks. The test compound in the form of a solution or suspension was sprayed to a seedling, and conidia of a wheat powdery mildew microorganism (Erysiphe graminis fsp.tritici) cultured on a wheat leaf was dropped on the test plant to inoculate the plant with the pathogen. After the inoculation, the plant was kept in a green house at 20° C. for 10 days. The infected area on the leaf was observed, and the % control was calculated.
structure (smiles),measurement,setting,value
CNC(=O)C(=NOC)C(C)=NOCc1ccc(Cl)c(Cl)c1 [Compound B-476],Controlling effect on cucumber mildew microorganism (Sphaerotheca fuliginea) by foliage application at 500 ppm (% control),Sphaerotheca fuliginea,100%
CON=C(C)C(=NOCc1ccccc1Cl)C(=O)N(C)C [Compound C-11],Controlling effect on wheat powdery mildew microorganism (Erysiphe graminis f.sp.tritici) by foliage application at 500 ppm (% control),[1],90%
C=CCON=C(C)C(=NOCc1ccccc1Cl)C(=O)N(C)C [Compound C-86],Controlling effect on wheat powdery mildew microorganism (Erysiphe graminis f.sp.tritici) by foliage application at 500 ppm (% control),[1],90%
C=CCON=C(C)C(=NOCc1ccc(Cl)c(Cl)c1)C(=O)N(C)C [Compound C-96],Controlling effect on wheat powdery mildew microorganism (Erysiphe graminis f.sp.tritici) by foliage application at 500 ppm (% control),[1],90%
CON=C(C(=O)N(C)C)C(C)=NOCc1ccccc1 [Compound C-176],Controlling effect on wheat powdery mildew microorganism (Erysiphe graminis f.sp.tritici) by foliage application at 500 ppm (% control),[1],90%
C=CCON=C(C(=O)N(C)C)C(C)=NOCc1ccccc1 [Compound C-180],Controlling effect on wheat powdery mildew microorganism (Erysiphe graminis f.sp.tritici) by foliage application at 500 ppm (% control),[1],90%
same,Controlling effect on cucumber mildew microorganism (Sphaerotheca fuliginea) by foliage application at 500 ppm (% control),Sphaerotheca fuliginea,100%
CON=C(C(=O)N(C)C)C(C)=NOCc1ccccc1Cl [Compound C-251],Controlling effect on wheat powdery mildew microorganism (Erysiphe graminis f.sp.tritici) by foliage application at 500 ppm (% control),[1],90%
CON=C(C(=O)N(C)C)C(C)=NOCc1cccc(Cl)c1 [Compound C-276],Controlling effect on wheat powdery mildew microorganism (Erysiphe graminis f.sp.tritici) by foliage application at 500 ppm (% control),[1],90%
C=CCON=C(C(=O)N(C)C)C(CC)=NOCc1ccccc1 [Compound C-780],Controlling effect on wheat powdery mildew microorganism (Erysiphe graminis f.sp.tritici) by foliage application at 500 ppm (% control),[1],90%
same,Controlling effect on cucumber mildew microorganism (Sphaerotheca fuliginea) by foliage application at 500 ppm (% control),Sphaerotheca fuliginea,97%
C=CCON=C(C(=O)N(C)OC)C(C)=NOCc1ccccc1 [Compound F-180],Controlling effect on wheat powdery mildew microorganism (Erysiphe graminis f.sp.tritici) by foliage application at 500 ppm (% control),[1],90%
same,Controlling effect on cucumber mildew microorganism (Sphaerotheca fuliginea) by foliage application at 500 ppm (% control),Sphaerotheca fuliginea,100%
"OC(c1ccc(Cl)cc1)(c1cncnc1)c1ccccc1Cl (stereo not drawn) [Fenarimol, reference compound]",Controlling effect on wheat powdery mildew microorganism (Erysiphe graminis f.sp.tritici) by foliage application at 500 ppm (% control),[1],97%
same,Controlling effect on cucumber mildew microorganism (Sphaerotheca fuliginea) by foliage application at 500 ppm (% control),Sphaerotheca fuliginea,100%

# From US6251949A, “Oxime derivatives, hydrazone derivatives and use thereof” (Shionogi & Co., Ltd., priority 1996, dated 2001)
